Measured values published in paper PMC12136788.
This is one part of the list.

T1: UNK ZnF1-6 (called full-length) (human, UniProt Q9C0B0 30-357)
T1 sequence: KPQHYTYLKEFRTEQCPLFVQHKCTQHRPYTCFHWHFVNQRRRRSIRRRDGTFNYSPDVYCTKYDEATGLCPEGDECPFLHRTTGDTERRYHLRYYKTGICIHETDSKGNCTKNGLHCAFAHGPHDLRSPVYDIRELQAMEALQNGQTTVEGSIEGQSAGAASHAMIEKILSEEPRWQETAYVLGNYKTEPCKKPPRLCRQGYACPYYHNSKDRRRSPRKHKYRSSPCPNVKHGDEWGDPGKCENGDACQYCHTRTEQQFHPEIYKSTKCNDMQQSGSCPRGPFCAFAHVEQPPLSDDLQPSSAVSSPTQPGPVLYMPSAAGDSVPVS

B1: chr2:160273923:160274028:-|3pUTR|ENSG00000153250|unk|FALSE|unique (ssRNA)
RNA: GGGAGUUCUACAGUCCGACGAUCGGGCUUUUAAAAGGUAGUCAAUAAAAGUUGCUGAAAUUUUGGCUUUUUUAAAUAUGUAGUAGGUGUUUUUAAUGAUUUUUCACAUAAUGUGUAAGGUAGUGAAAUGCAAGAAGGGAAAAACAACAGAGGAUUGAGCAUCA
B2: chr7:139306712:139306813:+|3pUTR|ENSG00000157741|msi1|total|mutant (ssRNA)
RNA: GGGAGUUCUACAGUCCGACGAUCAUCUGGGGCUUGCCCUUGGAUUUCACUUGUUAAACACCCUCAAACUUAAAAGAAGAAAACCGAUCUCCAGCUGGUGAAAAUUUUGUGCCCCAAAUAAUAUAUUAAUCCAAGUCUACCAAGCAACAGAGGAUUGAGCAUCA
B3: chr8:58582127:58582250:+|3pUTR|ENSG00000137575|unk|FALSE|bound_elsewhere (ssRNA)
RNA: GGGAGUUCUACAGUCCGACGAUCUUCAUAUUACUUUAGUUCUAUAGCAUACUUGCAUCUUUAACAUGCUAUCAUAGUACAUUUAGAAUGAUUGCCUUUGAUUUUUUUUUUAAAUUCUGUGUGUGUGUGUGUAAAAUGCCAAUUCAACAGAGGAUUGAGCAUCA
B4: ENSG00000070961:be:win_4901|3pUTR|ENSG00000070961|bound_else_gene|NA|bound_elsewhere_windowed (ssRNA)
RNA: GGGAGUUCUACAGUCCGACGAUCCAGUGCAUCAGUCUGUUCUCUUUGACCACAAUUGGAAUACAUUUCAAGAUGGUAACAGCCCCAUGAAGUACCGCUUUAAUUCCUUGCUGGUAAUCUAAUAGAAUCAGAUUAAGAAAAUUACAACAGAGGAUUGAGCAUCA
B5: chr10:110898111:110898227:+|3pUTR|ENSG00000150593|unk|FALSE|bound_elsewhere (ssRNA)
RNA: GGGAGUUCUACAGUCCGACGAUCAUAAGAACUCUUGCAGUCUUAGAUGUUAUAAAAAUAUAUAUCUGAAUUGUAAGAGUUGUUAGCACAAGUUUUUUUUUUUUUUUUUUUUAAGCACUUGUUUUGGGUACAAGGCAUUUCUGACAACAGAGGAUUGAGCAUCA
B6: chr3:160434497:160434598:+|3pUTR|ENSG00000113810|msi1|FALSE|bound_elsewhere (ssRNA)
RNA: GGGAGUUCUACAGUCCGACGAUCUUUAUGAUAGGUUUAUCCGGGUACUAAAUGCAUUUCAACUUGAUAGUUUCAACUUAUGAUAGGUUUACCAGGAUGUAGUCCCACUGUUGAGGAGCAUCUAUUUAGGGGUUAAUUACUUUACAACAGAGGAUUGAGCAUCA
B7: chr5:113019263:113019364:+|3pUTR|ENSG00000172795|msi1|FALSE|unique (ssRNA)
RNA: GGGAGUUCUACAGUCCGACGAUCCUCAACUGUGAAUGAAAUUUAGAAAGAUAAUUCUUCAGCAGUUGGUUGAUUAGAUGGGUUAGUGCUUUUGGAAUAUAUAACAGUAGACUUGUAUUCUUUAUGCACUAUACAUAUGAUACGCAACAGAGGAUUGAGCAUCA
B8: chr11:95167508:95167609:-|3pUTR|ENSG00000149212|unk|FALSE|unique (ssRNA)
RNA: GGGAGUUCUACAGUCCGACGAUCAAUAAUGGAGACUGAAUGAGGCGGUUUGUAUUAAAUUAUAUGCCAUGAAGUGUUCAUUUUAGCUUUAACCUAAUUAUGACUGUACCACCAUGAAGUACAGAAUGAAAAAUUAUAUAUAUGCAACAGAGGAUUGAGCAUCA
B9: chr19:10133403:10133440:-|3pUTR|ENSG00000130816|msi1_unk|total|mutant (ssRNA)
RNA: GGGAGUUCUACAGUCCGACGAUCUUUUUUAUUAUGCAUUAUAUCAAAUCUACCACUGUAUGAGUGGAAAUUAAGACUUUAUGCCGUUUUUAUAUGUUGUAAUAUUUCUUCAAAUAAAUCUCUCCUAUAAACCACCCUGGGUGGCAACAGAGGAUUGAGCAUCA
B10: chr4:41955281:41955382:+|3pUTR|ENSG00000109133|msi1|FALSE|unique (ssRNA)
RNA: GGGAGUUCUACAGUCCGACGAUCGUAGGGGGAGGAGUUGUGGGGGAAUAAUGUGCAUUUCAGUCUCAACGCAUAGAUAAAUUUAGGGGAAUUGGAUGUAUUAUUCAACUUUGAUUUGGGUUGUAAAAUGUGUUAAAUCCUGUUCAACAGAGGAUUGAGCAUCA
B11: chr2:110123602:110123703:-|3pUTR|ENSG00000144061|unk|FALSE|unique (ssRNA)
RNA: GGGAGUUCUACAGUCCGACGAUCAUCCUCCACGAUUACGUGAAUAAAAUGAUGGAACCAAAAAUCACUGUCACUUUACAACUUAGGUUUUACUCUUUUCUUUCUACAGACCAUAUUUUUAAAGAAAUGUUUAUACAAUAAUUUCAACAGAGGAUUGAGCAUCA
B12: ENSG00000107863:be:win_3451|CDS|ENSG00000107863|bound_else_gene|NA|bound_elsewhere_windowed (ssRNA)
RNA: GGGAGUUCUACAGUCCGACGAUCGACUGCCCACCAGCUCAUACUAAUCGGUAUAUUCCAUUAAUAGUUGACAUAUGUUGCAAAUUAGUUGAAGAAAGAGGUCUUGAAUAUACAGGUAUUUAUAGAGUUCCUGGAAAUAAUGCACAACAGAGGAUUGAGCAUCA
B13: chrX:46853785:46853899:+|CDS|ENSG00000102218|unk|total|mutant (ssRNA)
RNA: GGGAGUUCUACAGUCCGACGAUCCAUCAUUGAGUCUUCCUCAAAUAUCAAAUUUGGAUGUUUUCAAUGGUACUAUCCUGAAUCCGCUUUCCAGUUCAAAGAUGCAGGGCUAAGUAUCUUCAACAAUACAUGGAGUAACAUUCACAACAGAGGAUUGAGCAUCA
B14: chr2:25232207:25232317:-|3pUTR|ENSG00000119772|unk|total|mutant (ssRNA)
RNA: GGGAGUUCUACAGUCCGACGAUCGGUGAGGGCCCGACGGGCAGGUGCUUGCCUGGGCCGAUGGGGUGCCGAUAUGUGGCAUACCGAGAUAUAUAUUUUAUAAUGGGAGGGGGGAUGGCACCUCCUGGGACUGGCCGAGCUGGGCAACAGAGGAUUGAGCAUCA
B15: ENSG00000107951:stop:overlap|stop_codon|ENSG00000107951|stop_codon|NA|stop_codon (ssRNA)
RNA: GGGAGUUCUACAGUCCGACGAUCUGCCACGUUCAAACAAGCAGCUUUUUGAAUUACUUUGUUAUGCAGAAAGUGUAAGUUUUUAGGUGUACCUCAACUUUUAGAACUAUGUAUUUUUUUAUGAACAAUAAAGAUUCCUGUAAACAACAGAGGAUUGAGCAUCA
B16: chr17:4937608:4937709:-|3pUTR|ENSG00000108528|msi1|FALSE|unique (ssRNA)
RNA: GGGAGUUCUACAGUCCGACGAUCAAGCGUCUCUUCCUCAGUGGCUGAAGCGGCCGGGGGCUCCCACUCGCCUGCUGCGCCUAUAGCCACUGCGCCCUGGGGGCCUGGGCUCUGCUGCCCUGGACCCCUCUAUUUAUUUCCCUUCAACAGAGGAUUGAGCAUCA
B17: ENSG00000070961:be:win_4601|3pUTR|ENSG00000070961|bound_else_gene|NA|bound_elsewhere_windowed (ssRNA)
RNA: GGGAGUUCUACAGUCCGACGAUCUCAGACUAUCAAACUACAAGAGAACCUUAGUCUUUUUUGUUUUUGUCUAAACAUGUUAGUUUAGUGAUGUCUUGGUGAACUGUGAGUGAACUGUAUUGAUUUUUCUAAUCUUUAGAGACCCAACAGAGGAUUGAGCAUCA
B18: chr1:201892154:201892255:+|3pUTR|ENSG00000198892|msi1|FALSE|unique (ssRNA)
RNA: GGGAGUUCUACAGUCCGACGAUCUGUUUGUCCCCUCUGGGCUGGGGUGGGGGGAGGGAGGAGGUUCCGUCAGCAGCUGGCAGUAGCCCUCCUCUCUGGCUGCCCCACUGGCCACAUCUCUGGCCUGCUAGAUUAAAGCUGUAACAACAGAGGAUUGAGCAUCA
B19: chr8:100287602:100287712:-|CDS|ENSG00000034677|unk|total|mutant (ssRNA)
RNA: GGGAGUUCUACAGUCCGACGAUCUGUGUGGAUUGCUUACGACAAUAUUUAAGGACCGAAAUCUCUGAAAGCAGAGUUAAUAUCCGUUGCCCAGAAUGUACUGAACGGUUUAAUCCCCAUGAUAUUCGCUUGAUAUUAAGUGAUCAACAGAGGAUUGAGCAUCA
B20: chr10:17315694:17315795:-|3pUTR|ENSG00000148488|unk|FALSE|unique (ssRNA)
RNA: GGGAGUUCUACAGUCCGACGAUCCUUCUUCCUCCCUGUCCAUCCCACCCUCGUCCCCAGAAAAUUCCUAAUCUGUUUUUCUAUAGACAUUUACAUUUUUACACUAUAGACUGUUUACAUUUUUUAGAAUUUUAUAUAAAUGGACAACAGAGGAUUGAGCAUCA
B21: chr14:100881274:100881386:-|CDS|ENSG00000254656|unk|total|mutant (ssRNA)
RNA: GGGAGUUCUACAGUCCGACGAUCCGCAGGCAGCAGCAUCACGACAGCCAUCACCCAGCUGCUCACCCAGAUGCCCGCUCUCGCCGGUGCAAACACCAUCCCAGCCCAGGAGCUGGCUGAGCUGUUCCUGGGCCCUGGCCGCUGCAACAGAGGAUUGAGCAUCA
B22: ENSG00000107863:be:win_2401|CDS|ENSG00000107863|bound_else_gene|NA|bound_elsewhere_windowed (ssRNA)
RNA: GGGAGUUCUACAGUCCGACGAUCUUGGCUUCCAUCCCAUUUAUAGAUGAACCAACUAGCCCUAGCAUUGAUCAUGAUAUUGCACAUAUCCCUGCCUCUGCUGUUAUAUCAGCCUCUACCUCUCAGGUCCCCUCCAUAGCAACACAACAGAGGAUUGAGCAUCA

Target: T1, UNK ZnF1-6 (called full-length)
Experiment: nsRBNS (natural sequence RNA bind-n-seq); RBNS binding buffer (assumed for nsRBNS): 25 mM Tris pH 7.5, 150 mM KCl, 3 mM MgCl2, 0.01% Triton X-100, 500 ug/ml BSA, 20 U/ml SUPERase-In, 4 C; UNK is unkempt and MSI1 is Musashi-1; names of the RNAs are library labels; protein concentration not given here; high values mean tight binding

Binder | binding signal
B1 | 3.73 enrichment R
B2 | 0.819 enrichment R
B3 | 5 enrichment R
B4 | 0.402 enrichment R
B5 | 8.17 enrichment R
B6 | 2.3 enrichment R
B7 | 0.541 enrichment R
B8 | 8.52 enrichment R
B9 | 2.1 enrichment R
B10 | 2.35 enrichment R
B11 | 4.91 enrichment R
B12 | 1.19 enrichment R
B13 | 0.433 enrichment R
B14 | 1.63 enrichment R
B15 | 0.514 enrichment R
B16 | 0.764 enrichment R
B17 | 2.66 enrichment R
B18 | 0.818 enrichment R
B19 | 0.232 enrichment R
B20 | 25.2 enrichment R
B21 | 0.571 enrichment R
B22 | 4.07 enrichment R
